The campaign covered roughly 150,000 compounds. About 540 (0.36%) showed an effect of 50% or more. The list shows a part of the results.
tested on: Plasmodium falciparum; experiment: Primary screen in NF54 nanoGlo assay, in single point, at 2uM, 72h; a lower Z score goes with more inhibition; assay type: functional, Erythrocyte; details: timepoint 72 hour

Row | Compound | % Inhibition [%] | Z score
1 | O=C(NC[C@H]1OC[C@@H](NCc2cccs2)[C@@H]1O)C1CCCC1 | -6 | 0.98
2 | O=C(C1CCN(Cn2ncc3ccccc3c2=O)CC1)N1CCCCCC1 | 17 | -2.21
3 | CCOCCC(=O)Nc1c(C)cnn1CC(C)C | -5 | 0.79
4 | CCn1c(-c2cc(NC(=O)CC(C)C)[nH]n2)cc2ccccc21 | -4 | 0.49
5 | Cc1sc(CNC(=O)c2cnccn2)nc1-c1ccccc1 | -2 | 0.25
6 | Cc1ccc(-c2coc(-c3ccc(NC(=O)c4c(F)cccc4F)cc3)n2)cc1 | -8 | 0.97
7 | COc1cccc(N2CCN(C(=O)c3nnn(-c4ccc(Cl)cc4)c3C)CC2)c1 | 34 | -3.82
8 | O=C(c1cccc(S(=O)(=O)N2CCN3CCCC[C@H]3C2)c1)N1CCCC1 | -14 | 1.4
9 | Cc1ccccc1-c1noc(CN2CCc3c(nc(C4CC4)n3C)C2)n1 | -6 | 0.84
10 | O=C([C@H]1C[C@@H](F)CN1S(=O)(=O)Cc1ccc(Cl)cc1)N1CCOCC1 | -7 | 0.92
11 | Cc1cccc(S(=O)(=O)CC(=O)N2CCc3ccccc3C2)c1 | -3 | 0.3
12 | CC(=O)Nc1ccc(CN2CCC[C@H](C(=O)c3cccc4ccccc34)C2)cc1 | -1 | 0.24
13 | Cc1cccc(CC2(NC(=O)C[C@H]3CCOC3)CC2)c1 | -6 | 0.79
14 | C(=Cc1ccn(-c2ccccc2)n1)c1ccnnc1 | 27 | -3.67
15 | CN(CC(=O)Nc1ccc(O)cc1)Cc1nc2c(cnn2C)c(=O)[nH]1 | -4 | 0.6
16 | COc1cccc(C(=O)N[C@@H]2C[C@H]3OCC[C@@H]23)c1C | 4 | -0.63
17 | COc1ccnc(N2CCC[C@@]3(CCC(=O)N(CCc4ccccn4)C3)C2)n1 | 2 | -0.37
18 | CCN(CC(=O)N1CCOC2CCCCC21)C1CCS(=O)(=O)C1 (stereo unspecified) | 8 | -1.1
19 | O=C(NCCn1cc(-c2cccnc2)cn1)[C@@H]1CC=CCC1 | 15 | -1.85
20 | O=C(CC[C@H]1CCCN(C(=O)c2cccs2)C1)N1CCN(c2ccccn2)CC1 | -8 | 1.36
21 | Cc1cccnc1C(=O)N1CCC([C@H]2CCN(CCc3ccccc3)C2)CC1 | -17 | 1.56
22 | Cc1ncc(C(C)C)c(-c2ccc3c(c2)OCCO3)n1 | -3 | 0.32
23 | CS(=O)(=O)N1CCN(c2ccc(=O)n(-c3ccc(Cl)cc3)n2)CC1 | 15 | -1.8

Reference: ChEMBL document CHEMBL4888484, “Replenishing the malaria drug discovery pipeline: Screening and hit evaluation of the MMV Hit Generation Library 1 (HGL1) against asexual blood stage Plasmodium falciparum ,using a nano luciferase reporter read-out” (2022)
